From the supplement of paper PMC11417369
The other results are listed elsewhere or left out.

test system: PfHDP1 homeodomain (GST-tagged); assay: gcPBM binding intensity (ln(normalized median fluorescence intensity)); higher = stronger DNA binding
In short: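 DNA-binding domains from P. falciparum, fused to GST and produced in E. coli, were put on an Agilent 4 × 180k double-stranded probe array for 1 h in 1× PBS holding 1% milk, 0.2 mg/ml BSA, 0.5% salmon testes DNA and 0.03% Triton X-100. Probes were primer-extended, 36 bp long and drawn from intergenic genomic regions, with negative controls included. After Alexa488 anti-GST antibody detection and a 488 nm scan, binding intensity was set as the highest Masliner-normalised natural-log median intensity across replicate spots of either probe orientation.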

Row | Sequence | gcPBM binding intensity (ln)
1 | TAATTTTTTTTTTTTTTTTTTTTTTTTTTTTTTTTA [CACACA_negctrl_site1218] | 5.81
2 | TTTTCATTCCACAACGCACACCCATTTAAAAAAAAA [CACACA_site1377] | 7.45
3 | AAAAAAAAAAAAATTACACACATACAGATAATAATA [CACACA_site5244] | 6.49
4 | TATGCAAGGAACCACACACACACACGGAAATGTATA [CACACA_site6490] | 6.77
5 | AATTATGGGGAAAAGACACACATATATATATATATA [CACACA_site2589] | 9.35
6 | ATACGACAAATATAAAGTACAAGCTTGGTTTTTATA [XGTACX_site8103] | 6.4
7 | ATTCTATAGAAACACACACACATGCATGCACCTATA [CACACA_site107] | 8.67
8 | TTATATATATATGTATGTACTTATAACTTTTATTAG [XGTACX_site3190] | 6.14
9 | TTTATTTATAGAATTACACACATATATACACAAATG [CACACA_site7338] | 6.96
10 | TTCTTTTTTTTCAGTTGTACTTATAAGAAAGAAAAA [XGTACX_site4028] | 6.37
11 | TTTATTTTTAAAGGCACACACATTTTTATTTTTAAA [CACACA_site2021] | 6.44
12 | AATATAAATATAGGAAATGTAGTTAAAAGGTGTATG [CACACA_negctrl_site1233] | 6.85
13 | ATATATATAACAAAAGTGCATTAAGGGGATGCTATA | 8.66
14 | TTATTATAAATAGGTAGTACATTTTGAACAAATATT [XGTACX_site8866] | 6.14
15 | TTAATATAAATATGATTTTTGATTCCTATACTATTT [CACACA_negctrl_site752] | 5.95
16 | TTGTATTCATATGGTTGTACATATTAAAAGTTCTAA [XGTACX_site7255] | 6.22
17 | ATAAGGTTACAACAAACACACAAAGGAATATACGCA [CACACA_site4090] | 6.99
18 | AAGAAGAATAGGCGTTGTACGGAATGTAGTAGAGTT [XGTACX_site2430] | 7.17
19 | CACAAGAAAGTTCACACACACACATATATATATATA [CACACA_site6009] | 9.38

Row | Sequence | gcPBM binding intensity (ln)
20 | TATACTGATAAAAAAAGTACTAGAGTTTGTAAAAAT [XGTACX_site3934] | 6.65
21 | AATTTTAATTTTTTGACACACATATAATATATATAT [CACACA_site3978] | 7.86
22 | TTATATGTCAATTTGCGTACATACATAATTACATAT [XGTACX_site1546] | 6.34
23 | ATAAATTTACTTGATTGTACATTTCTTAGTTGTATT [XGTACX_site3057] | 6.35
24 | CAAAGACACAAACACACACACACATACATACATACA [CACACA_site453] | 7.7
25 | TTTTATATATTCAATTGTACATGTATTTTTTTTTTT [XGTACX_site3584] | 6.54
26 | TATGGGTATGTATTCACACATAACAAAAATATCAAA [CACACA_site5059] | 6.58
27 | ATATATATATATAACACACGCAAAAAAATTAAATAA [CACACA_site1400] | 8.99
28 | ATGCAATAAATATACACACACAAATCTATATTTATA [CACACA_site7179] | 7
29 | TTTTTTTTGTAGAATTGTACTTATAAAATATATATA [XGTACX_site2116] | 6.25
30 | AAAAAATGGATGATCACACACTTCATAAAAGTTGCA [CACACA_site7109] | 6.04
31 | AGTTCAAGGATTAAGACACACATATAAATAAATAAA [CACACA_site3662] | 6.58
32 | AATTATTATATATATATATATATATATTTATATATT [GTGCAC_negctrl_site387] | 6.84
33 | AAATAAAATAATTATAATACTAAAAATAATACATAA [GTGCAC_negctrl_site106] | 6.39
34 | AAAACTTTTAGTTATACACACAACATAGAAAATATT [CACACA_site6287] | 6.68
35 | AATGAGCGTTAAAAATGTACAGAAAATTGGAATTAT [XGTACX_site5743] | 6.75
36 | CTCCTACAAATATGTAGTACATTCAAAATAAATACC [XGTACX_site8207] | 6.63
37 | AACAATCAAATAGACACACACACACCCAAACATAAA [CACACA_site2757] | 6.98
38 | CATTATGTTGTAAATACACACATACCTATACATACA [CACACA_site6485] | 6.74

Row | Sequence | gcPBM binding intensity (ln)
39 | TTTTTTTTTTTATCTGCACACCCTTTTGTGAATATT [CACACA_site789] | 7.77
40 | ACGATATTTTTGGTGACACACATATATATATATATA [CACACA_site126] | 9.39
41 | TCTGAGAATGATAAAAAAAAAAAAAATGAAAAATTA [CACACA_negctrl_site1478] | 6
42 | TATTTATTTATATTTACACACATTCATATAAATTCA [CACACA_site7628] | 6.87
43 | AACATTATAGGACACACACACACATATATATATATA [CACACA_site4721] | 9.16
44 | CTTATACATTATTAACGTACATGTTATATGAATAAC [XGTACX_site5752] | 6.19
45 | TTTTTTTTTTTTTTTTTTTTTTTTAAATGCTTCTAA [TGCATGCA_negctrl_site253] | 6.26
46 | GTCACATTGTTATATTGTACAAATGTCGTTCTTTTT [XGTACX_site8098] | 6.49
47 | CACTATCAATATATATGTACATATATATATATATAT [XGTACX_site7854] | 9.29
48 | ATATAAAAATATATTAATATAAATAAATGGACATAT [XGTACX_negctrl_site488] | 6.68
49 | TAAATATATAAATACACACAAACATACATATATATA [CACACA_site4050] | 6.89
50 | AAAAAAAAAAAATTCACACACATATAAAAAATTAAG [CACACA_site728] | 6.42
51 | GTAAAAAATATGAATACACACATAAAGGAAATAACA [CACACA_site1997] | 7.39
52 | TAATATATAAGTATTTGTACATATTCATTCATCTAT [XGTACX_site2935] | 6.03
53 | TTTTTTTTTTTTTTTTTTTTTTTTGGGTCCCATACA [CACACA_negctrl_site913] | 6.36
54 | AAAAAAAAAAAAAAAAGTACAGACGTCAAAAAAAAA [XGTACX_site4817] | 6.17
55 | AACAAATAAGATAAATGACTTAACAAAAGAAAAAAG [CACACA_negctrl_site1409] | 6.53
56 | TTTTAATTATATTATGCACACACAATTGGAAAAAAA [CACACA_site8598] | 10.2
